This is one part of the list.
T1: UNK ZnF1-3 (human, UniProt Q9C0B0 31-174)
T1 sequence: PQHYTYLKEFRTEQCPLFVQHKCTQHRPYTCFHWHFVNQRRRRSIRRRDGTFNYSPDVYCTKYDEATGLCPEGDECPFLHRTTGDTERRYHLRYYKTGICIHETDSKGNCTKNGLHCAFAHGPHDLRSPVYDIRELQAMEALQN

B1: 49445440_49445560_1965_CDS_ENSG00000167548_ENST00000301067|human|control|control (ssRNA)
RNA: GGGAGUUCUACAGUCCGACGAUCAGGCGGUGGGGACAAGGGAGAUUCCUCAGGCGGUGGAGACAGGCGUGACACCACAGGCAGGGGGGAUAGGCGCGAUACCUCAGGUGGGGGGGACAUAGGUGAUUCUUCAGGUGGUGGGGACAACAGAGGAUUGAGCAUCA
B2: chr15:80044675:80044676:+_ENSMUSG00000042428_ENSMUST00000044970|mus_mus|FALSE|FALSE (ssRNA)
RNA: GGGAGUUCUACAGUCCGACGAUCCCUACGCCCACACAUGAGUAUCAUCUUUGUACAGGGACACAUGGAUACAGACAUGUACAAUACACACCAAGCAUGCACCCAUGCCCAUAAAUAUACAUACACGCACAAACACGGACCAUUCAACAGAGGAUUGAGCAUCA
B3: chr5:21408736:21408737:-_ENSMUSG00000042453_ENSMUST00000161356|mus_hu|mus_mus_mus_hu_False|8_48 (ssRNA)
RNA: GGGAGUUCUACAGUCCGACGAUCGUUGACAGAGUUGUAGAUGGUGGCUUCAUGGAACUGGAAAGGGGAGCAGCCAAUGCUGUUAGAAGAGGAAGGUAGGCACUGGGUCUGUACGAGCUGCCAGGAAUCGGACCUUGCAUCCUUCAACAGAGGAUUGAGCAUCA
B4: chr4:123032474:123032475:-_ENSMUSG00000028649_ENSMUST00000154824|mus_hu|motif|central (ssRNA)
RNA: GGGAGUUCUACAGUCCGACGAUCGUGAGCGGAAGGGGGUCAUUCCCUGGGAUGCUCCCUCUGGUAGGAUGAAUUUCUCUCGGAGUUCAAUGUUAGUUCUACCUCGUGCUCGGCAGGGAUCAUUUUUCACUAAAAAUUCAUCCACAACAGAGGAUUGAGCAUCA
B5: chr19:8913615:8913616:-_ENSMUSG00000071658_ENSMUST00000096259|mus_hu|mus_mus_mus_hu_False|8_108 (ssRNA)
RNA: GGGAGUUCUACAGUCCGACGAUCAGGGGGGCACCAACUUCUGCCUGAAAUGGGUGCCCCACCCAGUAGGGAGUUGCAGCUGAAAGUAUCUGAUGCAGAAGCAGUGACUAUACGAAAGGAGGCCCCUGAUGCUCAGAAGGCCAGCAACAGAGGAUUGAGCAUCA
B6: chr3:179287964:179287965:+_ENSG00000136518_ENST00000429709|hu_hu|hu_hu_hu_mus_True|8_68 (ssRNA)
RNA: GGGAGUUCUACAGUCCGACGAUCCUUGAGUGGUGAGAUGGCCUCCAUGUUCUCCCUGGGCACGCGGAGAGCAUUAGUGUCUAUGUAGUAGGUGGGCCCGCCCUGCUUGCCUUUGUCACCAUCAAUCUCCAUUAAUGUACUUCCCAACAGAGGAUUGAGCAUCA
B7: 53688312_53692579_301_CDS_ENSMUSG00000024974_ENSMUST00000025930|mouse|control|control (ssRNA)
RNA: GGGAGUUCUACAGUCCGACGAUCAACACGAGGACCUGUACCCUCAUGCAACAAAGCCAAUCGCUGCUCUGGACGAAGAUGGCUGAAUUCAUCACUGAGAACAAACUGGAUUGCAUAAAAGAAGUUGCUUUUUCCAGAGCCAUUCAACAGAGGAUUGAGCAUCA
B8: chr5:128440902:128440903:+_ENSG00000066583_ENST00000173527|hu_mus|hu_hu_hu_mus_True|8_78 (ssRNA)
RNA: GGGAGUUCUACAGUCCGACGAUCUUGAACGGUGCUGCCAAGUCCUUUGGGGUAUUGUUCUGUUACAAUAACUGGAAUCCCUAAGAUCCGAGCUCCUUGCAACAGUCUCUGUCCCACACUAAUGAUGUCCCCAAAAUAUUUGAUCAACAGAGGAUUGAGCAUCA
B9: chr4:141323876:141323877:-_ENSMUSG00000040697_ENSMUST00000038014|mus_hu|FALSE|FALSE (ssRNA)
RNA: GGGAGUUCUACAGUCCGACGAUCGGUCAGGUCAGGAAGCACUGCUUCAGAGGACAGAAGAGCUGGAUCUUUACGCAGCUGGUCGAGAUAGCCCAAGAGGAUAAAUUUGUCACUCUCACUCCCAAUCCAAGGGUCUUCCAGGGUCAACAGAGGAUUGAGCAUCA
B10: chr7:82072735:82072736:-_ENSG00000153956_ENST00000356860|hu_mus|FALSE|FALSE (ssRNA)
RNA: GGGAGUUCUACAGUCCGACGAUCAGUGACGGGCGAAGGGAAGGGCUCCUCGCUCGAGGGGCCGAUCAGCCCAGAUUGGAAAAGUGUCAGAGUCAAGGCCAGCAGGCAGCCAGCAGCCAUCUUCGCGAUCGAAGAUCAGUGCCCCAACAGAGGAUUGAGCAUCA
B11: 36867670_36873164_168_5pUTR_ENSMUSG00000029192_ENSMUST00000171385|mouse|control|control (ssRNA)
RNA: GGGAGUUCUACAGUCCGACGAUCCGGUCUUCCAGCCUUGUCUUCAUAUUCCAUGAACGCCAGGCCUCAGAGGCGCGUGGCCGGCGGCUCCAUGCCCAGUGAGUGGAGGCCAGCCUCGCUCCUGCCUCUGGACCACGGAUCUACCAACAGAGGAUUGAGCAUCA
B12: chr5:145543945:145543946:-_ENSG00000133706_ENST00000545646|hu_hu|hu_hu_hu_mus_True|48_98 (ssRNA)
RNA: GGGAGUUCUACAGUCCGACGAUCCUGAACGGCCAGUGGCGGGAAAUAAUCAAGCCAGUGCUCUGCUUCAGAAAACUUCACUAUGUCUUCAUCAGACAGCCCAAGGGAUUUCAUAAUGUCCCACUGGUACUUAGAAGAUCCUGCCAACAGAGGAUUGAGCAUCA
B13: chr12:493273:493274:-_ENSG00000073614_ENST00000399788|hu_mus|hu_hu_hu_mus_False|28_28 (ssRNA)
RNA: GGGAGUUCUACAGUCCGACGAUCUUUUCUCUCCACCACAGGGAUCUUCAAUGUAGAUCCUUGAAGUUCCCAAAAUUUUGCCAGUUGAUCCAAGAAGUCCAAUCUUACUCUGGUCAUUGCCUCAAGUUCAUUCAGGCGCUGGACCAACAGAGGAUUGAGCAUCA
B14: chr12:25362807:25362808:-_ENSG00000133703_ENST00000311936|hu_mus|motif|central (ssRNA)
RNA: GGGAGUUCUACAGUCCGACGAUCCUUCUUCUUCUUCCCAUCUUUGCUCAUCUUUUCUUUAUGUUUUCGAAUUUCUCGGACGGAUGUAUAGAAGGCAUCGUCAACACCCUGUCUUGUCUUUGCUGAGGUCUCAAUGAACGGAAUCAACAGAGGAUUGAGCAUCA
B15: chr4:144460044:144460045:+_ENSG00000153147_ENST00000283131|hu_mus|hu_hu_hu_mus_False|18_58 (ssRNA)
RNA: GGGAGUUCUACAGUCCGACGAUCACGGUCCAUAGCCUGAAGAUCAACUUGCGGAUUCCAAUCUGAGUCAUAUAAAAUUACUACAUCAGCAGUUGCAAGAUUGAUGCCCAGACCACCAGCACGCGUGCUUAGCAUAAAUACAAACAACAGAGGAUUGAGCAUCA
B16: chr14:66974463:66974464:+_ENSMUSG00000022044_ENSMUST00000074523|mus_hu|mus_mus_mus_hu_False|8_8 (ssRNA)
RNA: GGGAGUUCUACAGUCCGACGAUCUUGUAGGACGACUUAUUCAGGGGAUCGGCCAGGAAGCAGGAGCAGAACAAGGACACCAGCGGGAGCUCCUUCAUCUUCUCUUUGUAGGCAGCAAGGGUCAUGUUGGCUGGAAUUGGUGGCCAACAGAGGAUUGAGCAUCA
B17: chr14:94519448:94519449:-_ENSG00000089737_ENST00000330836|hu_hu|motif|central (ssRNA)
RNA: GGGAGUUCUACAGUCCGACGAUCAGAGUUGUGCAGGCAAGCCUGGAAGUUCCGAUACUCAGAUUUCUCAAUCUGUCGAGCGGAACGGAUUCGCUCCUUGACCACAUCCAUGUAUUUUGUCUGCACGGGGAACAGUGGGAUAUCCAACAGAGGAUUGAGCAUCA
B18: chr4:25749455:25749456:-_ENSG00000091490_ENST00000264868|hu_hu|hu_hu_hu_mus_False|28_38 (ssRNA)
RNA: GGGAGUUCUACAGUCCGACGAUCGCACUAUGACCUCUAGAAAAAUCCACAGGGGGAAAAAAUGUAAACCAAUGUACAAUGUUAUCGCCUUCCCUGUAUUUCCAGGCACAAACAAUUGGCUCCUUCUAGCUGCUGGAUUUGGGACAACAGAGGAUUGAGCAUCA
B19: chr19:37063429:37063430:+_ENSMUSG00000040565_ENSMUST00000099494|mus_hu|motif|central (ssRNA)
RNA: GGGAGUUCUACAGUCCGACGAUCCAUAGCAUCCCAGAGAUGUGGCAACUUCACUGCCAUUUCACCACCAAAAUGCUUUACGGUAGUUGUCAAAGCAAAUUCAGCUCCUCUCCGUUGUACCAGGUAAGGCUUCUGGGCCUCAUCCAACAGAGGAUUGAGCAUCA
B20: chr1:204375296:204375297:-_ENSG00000158615_ENST00000367188|hu_hu|motif|central (ssRNA)
RNA: GGGAGUUCUACAGUCCGACGAUCGCCAACUCAACAUUGCUUGAGAACAUUAAGUCCUUUGAAGCAUGUUCCCUGGAGUCGGUUAAACAUUCUUUCUCUGUGUUCAAAUGUCAAGCAAUAUCCAAUAGCAUCUUCUGUUUCUUGCAACAGAGGAUUGAGCAUCA
B21: chr10:110404880:110404881:-_ENSMUSG00000035798_ENSMUST00000041723|mus_mus|motif|central (ssRNA)
RNA: GGGAGUUCUACAGUCCGACGAUCGUUUUUGUGAUACUUGUCACCAAGGUUAACUGAAACAUUGAAUGUUAAAAGCAAUCGGGUUGGAUCCACACUAUGUGUUCUAUAAGCUGCCCACAUUAAAGGGGUCAUUCCAUUCUGAUCCAACAGAGGAUUGAGCAUCA
B22: 17230632_17270780_116_CDS_ENSG00000003987_ENST00000180173|human|control|control (ssRNA)
RNA: GGGAGUUCUACAGUCCGACGAUCUUCUUUUCUUGGGUCAGGUGAAUUUUCCACGAAUAUGACAUGGGUAGCCGUCAAAUACAAAGUACCUAGAGCUGCUUUUUUAGGAGACACUCGAUCUACCAAGCGGACAUUUUCAACCUUCAACAGAGGAUUGAGCAUCA

target: T1, UNK ZnF1-3; assay: nsRBNS (natural sequence RNA bind-n-seq); RBNS binding buffer (assumed for nsRBNS): 25 mM Tris pH 7.5, 150 mM KCl, 3 mM MgCl2, 0.01% Triton X-100, 500 ug/ml BSA, 20 U/ml SUPERase-In, 4 C; UNK is unkempt and MSI1 is Musashi-1; names of the RNAs are library labels; protein concentration not given here; high values mean tight binding

Binder	binding signal
B1	1.96 enrichment R
B2	1.03 enrichment R
B3	1.53 enrichment R
B4	0.788 enrichment R
B5	0.412 enrichment R
B6	0.639 enrichment R
B7	1.11 enrichment R
B8	0.668 enrichment R
B9	1.68 enrichment R
B10	1.21 enrichment R
B11	0.317 enrichment R
B12	1.1 enrichment R
B13	0.979 enrichment R
B14	0.479 enrichment R
B15	1.46 enrichment R
B16	2.3 enrichment R
B17	0.42 enrichment R
B18	1.07 enrichment R
B19	0.79 enrichment R
B20	0.332 enrichment R
B21	0.765 enrichment R
B22	0.76 enrichment R

Reference: publication PMC12136788
